Here are results for 29 compounds from PubChem BioAssay AID1745853 (National Center for Advancing Translational Sciences (NCATS), 2022).

Assay in all cases: Primary Screen for Target Class Profiling of Small Molecule Inhibitors of Methyltransferases
Test [1] has as its target Glycine N-methyltransferase (Homo sapiens) (UniProt Q14749). The conditions noted are these: purified enzyme, MTase-Glo SAH luminescence; measured here: GNMT inhibition; at 40 µM; stronger effect = lower value. In outline: (§1)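 Each enzyme was assayed with SAM and its substrate. SAH formation detected by MTase-Glo luminescence; single-point 40 uM screen[…].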
Test [2] concerns the target Guanidinoacetate N-methyltransferase (Homo sapiens) (UniProt Q14353). The conditions noted are these: purified enzyme, MTase-Glo SAH luminescence; measured here: GAMT inhibition; at 40 µM; stronger effect = lower value. In outline:
as §1

Test [3] deals with Histamine N-methyltransferase (Homo sapiens) (UniProt P50135). The conditions noted are these: purified enzyme, MTase-Glo SAH luminescence; measured here: HNMT inhibition; at 40 µM; stronger effect = lower value. The essentials:
as §1

For test [4], the target named is Nicotinamide N-methyltransferase (Homo sapiens) (UniProt P40261). The note with it: purified enzyme, MTase-Glo SAH luminescence; measured here: NNMT inhibition; at 40 µM; stronger effect = lower value. In outline: as §1
Test [5] has as its target Phenylethanolamine N-methyltransferase (Homo sapiens) (UniProt P11086). The note with it: purified enzyme, MTase-Glo SAH luminescence; measured here: PNMT inhibition; at 40 µM; stronger effect = lower value. In outline:
as §1

Each structure is given as a SMILES string. Some of the results follow. Further columns of the screen follow, without active or inactive calls.
On the % scale 0 is the no-effect control and ±100 the full control effect.

`CCc1ccccc1N1C(=O)c2cc3ccccc3n2CC1(C)C(=O)NCc1ccccc1OC` (stereo not drawn): the activity change, negative = inhibition was determined as 2.62% in test [1]; 0.086% in test [2]; 6.32% in test [3]; 5.01% in test [4]; 0.088% in test [5].

Regarding `CS(=O)(=O)N1CCC2(CC1)CN(C(=O)c1ccc(Cl)cc1)CCO2`, the activity change, negative = inhibition in test [1] is -3.51%; in test [2], -6.63%; in test [3], -4.38%; in test [4] it was -7.87%; in test [5], -5.03%.

Consider `CC1CCN(S(=O)(=O)c2ccc3c(ccn3CCC(=O)NCc3ccccc3F)c2)CC1`, for which the activity change, negative = inhibition in test [1] is -0.595%; in test [2], 3.67%; in test [3], -0.13%; in test [4], -4.87%; in test [5], -3.68%.

For the compound `Cc1ccc(CCNC(=O)CCc2nnc3n(CCc4ccccc4)c(=O)c4ccccc4n23)cc1`, the activity change, negative = inhibition in test [1] is -4.38%; in test [2] it was 0%; in test [3], 8.6%; in test [4], -0.812%; in test [5], 1.27%.

As for `Cc1ccc(CN2C(=O)c3cc4ccccc4n3CC2(C)C(=O)NCCC(C)C)o1` (stereo not drawn), the activity change, negative = inhibition in test [1] was -1.87%; in test [2] it was 3.73%; in test [3], -0.7%; in test [4], -6.22%; in test [5], -7.36%.

For the compound `Cc1ccc(NC(=O)Cn2nc3n(C(C)C)c(=O)c4ccc(C(=O)NC(C)C)cc4n3c2=O)cc1`, the activity change, negative = inhibition turned out to be 8.74% in test [1]; 1.49% in test [2]; 11.2% in test [3]; 5.49% in test [4]; 8.68% in test [5].

Regarding `CCOc1ccc(-c2cc3n(n2)CC(C)(C(=O)NC2CCCCC2)N(c2ccc(F)cc2)C3=O)cc1` (stereo not drawn), the activity change, negative = inhibition in test [1] was -0.315%; in test [2] it was 0.924%; in test [3], -3.91%; in test [4], 4.49%; in test [5] it was -0.978%.

For `Cn1c(=O)n(C)c2cc(S(=O)(=O)Nc3ccc4c(c3)OCO4)ccc21`, the activity change, negative = inhibition in test [1] is -1.75%; in test [2], 0%; in test [3] it was -2.1%; in test [4], -12.6%; in test [5] it was -3.44%.

Take `CCN1C(=O)c2cc(C(=O)NCCN3CCOCC3)nn2CC1(C)C(=O)NC1CCCC1` (stereo not drawn): the activity change, negative = inhibition in test [1] was 4.12%; in test [2] it was 0%; in test [3] it was -1.12%; in test [4] it was 6.29%; in test [5], 3.81%.

As to `COCCCN1C(=O)CSc2c(c3ccccc3n2C)C1C(=O)NCc1ccccc1OC` (stereo not drawn), the activity change, negative = inhibition in test [1] came to 9.86%; in test [2], 0%; in test [3], 5.05%; in test [4], 1.43%; in test [5], 8.02%.

Turning to `CN1c2cc(C(=O)N3CCN(c4ccccn4)CC3)ccc2C(=O)N2CCCCC21` (stereo not drawn), the activity change, negative = inhibition in test [1] is -1.73%; in test [2], -5.83%; in test [3], -0.003%; in test [4] it was -10.4%; in test [5], -0.163%.

For `CCC(C(=O)NCCC1=CCCCC1)n1ccc2cc(S(=O)(=O)N3CCCCC3)ccc21` (stereo not drawn), the activity change, negative = inhibition is 3.36% in test [1]; 0.617% in test [2]; -0.483% in test [3]; 2.01% in test [4]; 0.414% in test [5].

As for `CCc1nc(-c2ccc(OC3CCN(C(=O)Cc4c[nH]c5ccccc45)C3)cc2)no1` (stereo not drawn), the activity change, negative = inhibition in test [1] was -7.29%; in test [2] it was -2.1%; in test [3], -3.37%; in test [4], -5.93%; in test [5] it was -1.51%.

For `CCCCNC(=O)c1cc2n(n1)CC(C)(C(=O)NC1CCCCCC1)N(C)C2=O` (stereo not drawn), the activity change, negative = inhibition is 4.56% in test [1]; 4.9% in test [2]; -2.68% in test [3]; 4.37% in test [4]; 0.664% in test [5].

Regarding `C=CCN(C)C(=O)CC1COc2ccc(C(=O)N(C)C)cc2N1C` (stereo not drawn), the activity change, negative = inhibition was -1.93% in test [1]; -1.77% in test [2]; 0.713% in test [3]; -8.69% in test [4]; -5.77% in test [5].

Turning to `CCOC(=O)C(C)(C)Oc1ccc(Cl)cc1`, the activity change, negative = inhibition is -1.88% in test [1]; 7.03% in test [2]; 0.763% in test [3]; -4.39% in test [4]; 6.1% in test [5].

As for `O=c1cc(N2CCOCC2)oc2c1ccc1ccccc12`, the activity change, negative = inhibition was 3.83% in test [2], -15.6% in test [4] and -3.06% in test [5].

In the case of `CCN1C(=O)c2cc(C(=O)NCc3ccc(F)cc3)nn2CC1(C)C(=O)NC1CCCC1` (stereo not drawn), the activity change, negative = inhibition in test [1] was -3.31%; in test [2], 0.213%; in test [3], -11.8%; in test [4], -2.36%; in test [5], -0.59%.

For `c1cnc2c(c1)ccc1cccnc12`, the activity change, negative = inhibition is 4.42% in test [1]; 9.76% in test [2]; 8.1% in test [3]; -7.08% in test [4]; -0.318% in test [5].

As for `OC[C@H]1O[C@@H](OC[C@H]2O[C@@H](OCc3ccccc3)[C@H](O)[C@@H](O)[C@@H]2O)[C@H](O)[C@@H](O)[C@@H]1O`, the activity change, negative = inhibition in test [1] was 3.86%; in test [2], 4.69%; in test [3], 3.67%; in test [4], -5.43%; in test [5] it was 6.5%.

In the case of `CC1(C(=O)NC2CCCCC2)Cn2c(ccc2-c2ccccc2)C(=O)N1Cc1ccccc1Cl` (stereo not drawn), the activity change, negative = inhibition in test [1] was found to be 0.22%; in test [2], 5.6%; in test [3], 4.64%; in test [4], 2.56%; in test [5] it was 0.623%.

Consider `O=C(O)C1Cn2cccc2C(=O)N1Cc1cccnc1` (stereo not drawn), for which the activity change, negative = inhibition in test [1] was -1.21%; in test [2], -6.81%; in test [3], 0.164%; in test [4] it was 0.68%; in test [5], -0.367%.

Take `CC[C@H]1OC(=O)[C@H](C)C(O[C@H]2C[C@@](C)(OC)[C@@H](O)[C@H](C)O2)[C@H](C)[C@@H](OC2O[C@H](C)C[C@H](N(C)C)[C@H]2O)[C@](C)(O)C[C@@H](C)CN(C)[C@H](C)[C@@H](O)[C@]1(C)O` (stereo partly drawn): the activity change, negative = inhibition in test [1] was 9.78%; in test [2], 8.77%; in test [3], 11.6%; in test [4], -15.1%; in test [5] it was 1.48%.

In the case of `COc1ccc2c(c1)C(CN1CCN(CC(=O)OC(C)(C)C)CC1)=CC(C)(C)O2`, the activity change, negative = inhibition is 1.75% in test [1]; -2.18% in test [2]; 0.902% in test [3]; -1.7% in test [4]; -8.85% in test [5].

For the compound `CC(C)NC[C@H](O)COc1ccc(CC(N)=O)cc1`, the activity change, negative = inhibition in test [1] is -7.55%; in test [2], 5.66%; in test [3], -0.769%; in test [4], -3.92%; in test [5] it was 2.58%.

`C[C@@H]1O[C@@H](O[C@H]2[C@H](O)[C@@H](O)[C@H](OC[C@H]3O[C@@H](OC(=O)[C@]45CCC(C)(C)C[C@H]4C4=CCC6[C@@]7(C)CC[C@H](O[C@@H]8OC[C@H](O)[C@H](O[C@@H]9O[C@H](CO)[C@@H](O)[C@H](O)[C@H]9O)[C@H]8O)[C@@](C)(CO)C7CC[C@@]6(C)[C@]4(C)CC5)[C@H](O)[C@@H](O)[C@@H]3O)O[C@@H]2CO)[C@H](O)[C@H](O)[C@H]1O` (stereo partly drawn): the activity change, negative = inhibition in test [1] was 5.22%; in test [2] it was 2.82%; in test [3], 10.9%; in test [4] it was -9.89%; in test [5] it was 5.44%.

For the compound `CCn1nc(C)cc1C(=O)NCc1cccnc1N1CCOCC1`, the activity change, negative = inhibition in test [1] was 1.5%; in test [2], 0.633%; in test [3], 2.06%; in test [4] it was -5.79%; in test [5], 12.6%.

In the case of `COc1ccc(N(C(=O)c2cccc(C)c2)S(=O)(=O)c2ccc3c(c2)n(C)c(=O)n3C)cc1`, the activity change, negative = inhibition is -0.771% in test [1]; 1.81% in test [2]; 8.32% in test [3]; -7.66% in test [4]; 1% in test [5].

For `COc1ccc(CNC(=O)C2CN(S(=O)(=O)C3CC3)CC23CCCCC3)cc1` (stereo not drawn), the activity change, negative = inhibition is -2.81% in test [1]; -0.039% in test [2]; -5.96% in test [3]; -2.94% in test [4]; -4.81% in test [5].
